Assay [1] addresses T1, CIB2-V5 (calcium and integrin-binding protein 2, V5 tagged, wild type) (human), O75838.
T1 chain: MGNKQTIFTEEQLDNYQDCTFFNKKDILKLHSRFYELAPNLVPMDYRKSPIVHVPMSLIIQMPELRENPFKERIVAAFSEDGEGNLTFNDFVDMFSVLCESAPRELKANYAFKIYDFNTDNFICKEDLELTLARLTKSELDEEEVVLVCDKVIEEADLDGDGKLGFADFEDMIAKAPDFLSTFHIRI
Kind of assay: FRET or BRET; acceptor photobleaching FRET in fixed, co-transfected CHO-K1 cells; GFP/EGFP fusion as donor, V5 fusion stained with anti-V5 and goat anti-mouse Alexa Fluor 555 as acceptor. The settings on record: remark: other sources report otherwise. (In general: BRET reads energy transfer from a luciferase to a nearby fluorophore.)

Assay [2] concerns the target T2, mouse Tmc1 (aa 1-193), Gal4 DNA binding domain fusion (bait, plasmid pB66) (mouse) (UniProt Q8R4P5).
T2 sequence: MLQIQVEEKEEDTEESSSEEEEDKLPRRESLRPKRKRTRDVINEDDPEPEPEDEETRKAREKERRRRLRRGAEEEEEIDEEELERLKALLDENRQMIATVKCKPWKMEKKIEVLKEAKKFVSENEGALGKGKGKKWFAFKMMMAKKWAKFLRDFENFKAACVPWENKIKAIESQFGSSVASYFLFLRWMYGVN
Kind of assay: two-hybrid; yeast two-hybrid; bait Gal4 DNA binding domain-Tmc1 (aa 1-193), prey Gal4 activation domain-Cib2 full length; diploids by mating; HIS3 reporter, growth without tryptophan, leucine and histidine.

The target of assay [3] is T3, TMC1N (1-193), N-terminus of TMC1 (co-immunoprecipitation construct) (not stated (human or mouse cDNA cloned)) (UniProt Q8R4P5).
T3 sequence: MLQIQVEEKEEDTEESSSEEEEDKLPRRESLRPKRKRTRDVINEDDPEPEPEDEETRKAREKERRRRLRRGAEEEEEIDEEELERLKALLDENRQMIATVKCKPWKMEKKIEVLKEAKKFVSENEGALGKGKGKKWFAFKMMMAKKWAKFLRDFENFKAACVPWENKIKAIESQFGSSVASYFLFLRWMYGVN
Kind of assay: co-IP; HEK 293 cells co-transfected; sonicated in RIPA buffer; lysates incubated overnight at 4 °C with GFP antibody on Protein A-Sepharose CL-4B beads; western blot. In general terms: In western blotting, separated proteins are transferred to a membrane and probed.

These are yes or no findings as the source states them, for the method shown. For part of these data: Binding seen in cells or lysates may run through a third protein. Some binding calls cover weakened binding; strength is not graded here. For part of these data: Tags and fused reporters may be left off the sequences shown.

B1: CIB2-V5 (calcium and integrin-binding protein 2, V5 tagged, wild type), O75838 1-187 (protein)
chain: MGNKQTIFTEEQLDNYQDCTFFNKKDILKLHSRFYELAPNLVPMDYRKSPIVHVPMSLIIQMPELRENPFKERIVAAFSEDGEGNLTFNDFVDMFSVLCESAPRELKANYAFKIYDFNTDNFICKEDLELTLARLTKSELDEEEVVLVCDKVIEEADLDGDGKLGFADFEDMIAKAPDFLSTFHIRI
On to B1, for which the binding entry in assay [1] was “binds”.

B2: mouse full length Cib2, Gal4 activation domain fusion (prey, plasmid pP6) (protein, UniProt Q9Z309 1-187)
chain: MGNKQTIFTEEQLDNYQDCTFFNKKDILKLHARFYELAPNLVPMDYRKSPIVHVPMSLIIQMPELRENPFKERIVEAFSEDGEGNLTFNDFVDMFSVLCESAPRELKANYAFKIYDFNTDNFICKEDLEMTLARLTKSELEEDEVVLVCDKVIEEADLDGDGKLGFADFEDMIAKAPDFLSTFHIRI
For the molecule B2, the binding result in assay [2] was “binds”.

B3: full-length CIB2 (co-immunoprecipitation construct) (protein, UniProt Q9Z309 1-187)
chain: MGNKQTIFTEEQLDNYQDCTFFNKKDILKLHARFYELAPNLVPMDYRKSPIVHVPMSLIIQMPELRENPFKERIVEAFSEDGEGNLTFNDFVDMFSVLCESAPRELKANYAFKIYDFNTDNFICKEDLEMTLARLTKSELEEDEVVLVCDKVIEEADLDGDGKLGFADFEDMIAKAPDFLSTFHIRI
For B3, the binding entry in assay [3] is “binds”.

The record behind these values is publication PMC5491523.
